Several values for one entry are separate records, joined by “and”; a condition that tells them apart may be missing. Equal values may be shown once. About 25,000 (6.9%) of roughly 360,000 compounds were called active. The inconclusive results got no clear call from the source; some entries with a clear call stand among them for comparison. Calls come from the whole dose curve; as a rule, active = well fitted inhibition curve with a large enough effect; inconclusive = small, poorly fitted or top-dose-only effect; inactive = flat fitted curve, though single readings scatter. A potency beside an inconclusive call is a rough fit, not a confirmed value.
Molecular target: Luciferin 4-monooxygenase (Photinus pyralis) (UniProt P08659)
Test: qHTS profiling assay for firefly luciferase inhibitor/activator using purifed enzyme and Km concentrations of substrates (counterscreen for miR-21 project); note: nearly all actives have a fitted effect of over 55% in size;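 for activity change, negative = inhibition: plate controls were vehicle for no effect and reference inhibitor for full effect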
Settings: purified FLuc, luminescence inhibition; activity change, negative = inhibition: at 57.5 µM (top of the series)
How it was run: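 Biochemical qHTS of compounds, final roughly 60 µM downward over six points, against 10 nM purified firefly luciferase using Km concentrations of substrates (10 uM D-luciferin, 10 uM ATP) in Tris acetate pH 7.5 buffer; luminescence output.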
Potency is the fitted concentration of half-maximal effect; tags give direction and shape of the fitted curve.

UniProt P08659, sequence (P08659 whole entry, looked up): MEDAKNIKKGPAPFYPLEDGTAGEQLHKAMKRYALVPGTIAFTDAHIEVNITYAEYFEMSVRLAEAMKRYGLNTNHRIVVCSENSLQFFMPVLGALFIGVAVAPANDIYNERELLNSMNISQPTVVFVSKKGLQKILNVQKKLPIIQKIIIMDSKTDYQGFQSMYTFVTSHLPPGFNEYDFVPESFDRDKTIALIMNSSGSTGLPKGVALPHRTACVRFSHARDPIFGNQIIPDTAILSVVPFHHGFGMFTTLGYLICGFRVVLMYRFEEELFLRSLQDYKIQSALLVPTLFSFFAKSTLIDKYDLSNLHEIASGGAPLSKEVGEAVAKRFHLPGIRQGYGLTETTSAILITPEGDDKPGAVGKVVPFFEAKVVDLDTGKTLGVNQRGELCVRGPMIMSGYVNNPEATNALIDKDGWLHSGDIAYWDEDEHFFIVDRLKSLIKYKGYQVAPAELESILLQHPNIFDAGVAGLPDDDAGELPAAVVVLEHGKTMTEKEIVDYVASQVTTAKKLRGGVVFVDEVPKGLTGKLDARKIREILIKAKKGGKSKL

Structure (SMILES) | Potency | activity change, negative = inhibition
O=C(CSc1nnc2sc3ccccc3n12)c1ccco1 | active: 10.7 µM | –
CN1N=C(/C=C/c2ccccc2)CCC1=O | inconclusive: 30.1 µM [inhibitor, single point] | –
Nc1ccc(C(=O)OCCCc2nc3cc4ccccc4cc3[nH]2)cc1 | active: 15.1 µM | –
COc1ccc(-n2cc(C(=O)NCc3ccccc3)c3ccccc3c2=O)cc1 | inconclusive: 10.7 µM [inhibitor, partial curve, poor fit] | –
O=C(O)CC1SC(N/N=C/c2ccc(Br)cc2)NC1=O (configuration not stated) | inconclusive: 26.9 µM [inhibitor, partial curve, poor fit] | –
CN(C)c1ccc(NC(=O)CSc2nc(N)c(C(=O)Nc3ccc(N(C)C)cc3)s2)cc1 | active: 4.78 µM | –
Cc1nc2ccc(NC(=O)CCC3CCCC3)cc2s1 | active: 12 µM | –
O=c1c2ccccc2nc2sc(Nc3ccc(F)cc3)nn12 | inconclusive: 601 nM [inhibitor, full curve] and inconclusive: 478 nM [inhibitor, full curve] | –
CN1c2ccc([N+](=O)[O-])cc2N(C)C1(C)c1ccccc1 (configuration not stated) | inconclusive: 15.1 µM [inhibitor, partial curve] | –
Cc1sc2nc3ccc(N4CCCCC4)nn3c(=O)c2c1C | active: 8.49 µM | –
O=C(N/N=C/C(Br)=C/c1ccccc1)c1ccccc1F | active: 10.7 µM | –
CCc1nnc(N/N=C/c2c(C)[nH]c3ccccc23)n1N | inconclusive: 37.9 µM [inhibitor, partial curve, poor fit] | –
CCCCNc1nc2c(c(=O)n(Cc3ccc(Cl)cc3)c(=O)n2C)n1C | – | inactive: -1.63%
CN1C(=O)/C(=C/c2cn(CC(=O)N3CCCCC3)c3ccccc23)c2ccccc21 | inconclusive: 21.3 µM [inhibitor, partial curve, poor fit] | –
O=C(N/N=C/c1ccccc1)c1ccc2c(c1)OCO2 | inconclusive: 2.69 µM [inhibitor, full curve, poor fit] | –
COc1ccc(CCC2(C)NC(=O)N(C(C)C(=O)Nc3ccccc3F)C2=O)cc1 (configuration not stated) | – | inactive: 2.69%
Cc1nn(-c2ccc(F)cc2)c(Cl)c1/C=N/NC(=O)c1cccs1 | inconclusive: 2.39 µM [inhibitor, full curve] | –
CCOC(=O)Cc1csc(NC(=O)c2ccc(C)c(S(=O)(=O)N3CCOCC3)c2)n1 | inconclusive: 26.9 µM [inhibitor, single point] | –
C=CCNC(=O)c1onc(CSc2ccc(C)c(C)c2)c1C(=O)O | inconclusive: 21.3 µM [inhibitor, partial curve, poor fit] | –
Cc1ccc(OCc2ccc(C(=O)O)o2)c([N+](=O)[O-])c1 | active: 26.9 µM | –
COc1ccc(C2(C)NC(=O)N(CC(=O)Nc3ccc(Br)cc3F)C2=O)cc1OC (configuration not stated) | – | inactive: 6.22%
Cc1ccc(NC(=O)COC(=O)Cc2c[nH]c3ccccc23)cc1F | inconclusive: 37.9 µM [inhibitor, partial curve, poor fit] | –
CC(C)=CC(=O)OCC(=O)Nc1ccc(Cl)cc1 | inconclusive: 21.3 µM [inhibitor, single point] | –
CC(=O)c1ccc(CCCCCCCCCC(=O)O)s1 | inconclusive: 23.9 µM [inhibitor, partial curve] | –

Structure (SMILES) | Potency | activity change, negative = inhibition
O=C(/C=C/c1ccc2c(c1)OCO2)N1CCCCC1 | active: 12 µM | –
Cn1c(-c2ccc3c(c2)OCO3)cnc1NCc1cccc(O)c1 | inconclusive: 37.9 µM [inhibitor, single point] | –
OC(c1nnc(-c2ccccc2)o1)c1cccs1 (configuration not stated) | inconclusive: 3.79 µM [inhibitor, partial curve, poor fit] | –
CC(C)(O)C#Cc1ccc(C(=O)NC2CCCCC2)s1 | inconclusive: 26.9 µM [inhibitor, single point] | –
CCOC(=O)CSc1nc(Cc2ccccc2)nc2ccccc12 | inconclusive: 0.0085 µM [inhibitor, partial curve, poor fit] | –
NC(=O)c1c(NC(=O)C2CCCO2)sc2c1CCCC2 (configuration not stated) | inconclusive: 21.3 µM [inhibitor, single point] | –
CCOC(=O)C1=CN(c2cccc(F)c2)C=C(C(=O)OCC)C1c1cc(OC)c(O)c([N+](=O)[O-])c1 | inconclusive: 23.9 µM [inhibitor, single point] | –
O=c1c(-c2cccc(Cl)c2)c[nH]n1-c1ccccc1 | active: 26.9 µM | –
CCOC(=O)CNC(=O)Nc1nnc(-c2ccc(OCC)cc2)o1 | active: 12 µM | –
Cc1cc(Cl)ccc1NC(=O)/C=N/O | – | inactive: 2.69%
COc1ccc(-n2nc(C(=O)NCC(=O)NCCc3ccc(OC)c(OC)c3)c3ccccc3c2=O)cc1Cl | – | inactive: 0.0222%
O=C(Cn1cc(SCc2c(F)cccc2Cl)c2ccccc21)N1CCCCCC1 | inconclusive: 21.3 µM [inhibitor, partial curve, poor fit] | –
CCC(=O)N1N=C(c2ccc(C)o2)CC1c1ccc(N(C)C)cc1 (configuration not stated) | inconclusive: 26.9 µM [inhibitor, partial curve, poor fit] | –
Cc1cc(C)c(C)c(C(=O)c2ccccc2C(=O)O)c1C | inconclusive: 26.9 µM [inhibitor, partial curve, poor fit] | –
COc1ccc(CCNC(=O)c2cnc3ccccc3n2)cc1 | inconclusive: 21.3 µM [inhibitor, partial curve, poor fit] | –
O=C(CCCC(=O)c1ccc(O)cc1)c1ccc(O)cc1 | active: 2.39 µM | –
CCN1CCN(CCCNC(=O)c2ccc(/C=C3/Oc4ccccc4N(Cc4cccc(C)c4)C3=O)cc2)CC1 | inconclusive: 30.1 µM [inhibitor, partial curve, poor fit] | –
COc1ccc(/C=N/Nc2ccccn2)cc1O | active: 6.75 µM | –
N#C/C(=C\c1ccc(OC(F)F)cc1)C(=O)N1CCCCC1 | active: 13.5 µM | –
O=C(COC(=O)C1CC2C=CC1C2)Nc1cccc(S(=O)(=O)N2CCCCCC2)c1 (configuration not stated) | inconclusive: 19 µM [inhibitor, partial curve] | –
CN(C)C(=O)c1cccc(-c2csc(N3CCC(C(N)=O)CC3)n2)c1 | – | inactive: -20.9%
CC(C)Oc1ccc(CNC(=O)CCCN2C(=O)c3cccnc3Oc3ccc(Cl)cc32)cc1 | – | inactive: -0.0598%
COc1ccc(CC(=O)N2CCc3cc(OC)c(OC)cc3C2COc2ccc(OC)cc2)cc1 (configuration not stated) | – | inactive: 3.66%
Cc1ccc2c(c1)-c1cc(C)nn1C(c1sccc1C)N2 (configuration not stated) | inconclusive: 26.9 µM [inhibitor, single point] | –

Structure (SMILES) | Potency | activity change, negative = inhibition
Cc1ccc(C(=O)c2c3ccccc3[n+]([O-])n2CCC(N)=O)cc1 | inconclusive: 30.1 µM [inhibitor, partial curve, poor fit] | –
Cc1cc(C)n(C(=O)c2ccc([N+](=O)[O-])cc2Cl)n1 | – | inactive: 8.2%
COc1ccc(C(=O)NC23CC4CC(CC(C4)C2)C3)cc1OC | inconclusive: 23.9 µM [inhibitor, partial curve] | –
O=C1NC(=NCc2ccccc2)S/C1=C/c1ccc(O)cc1 | inconclusive: 23.9 µM [inhibitor, single point] | –
CCCCOc1ccc(-c2nonc2NC(=O)c2ccco2)cc1 | inconclusive: 26.9 µM [inhibitor, partial curve, poor fit] | –
Cc1ccc(SCc2c(C(=O)N/N=C/c3ccoc3)nnn2-c2nonc2N)cc1 | inconclusive: 37.9 µM [inhibitor, partial curve, poor fit] | –
Cc1ccc(NC(=O)O/N=C/c2ccc(F)cc2)cc1 | active: 15.1 µM | –
CCCc1ccc2oc(C(=O)N(Cc3nccn3C)C(C)C)c(C)c2c1 | inconclusive: 30.1 µM [inhibitor, single point] | –
CN(CC(=O)Nc1ccc2c(c1)OCCO2)S(=O)(=O)c1ccc(F)cc1 | inconclusive: 23.9 µM [inhibitor, partial curve] | –
Cc1cc(C)cc(NC(=O)c2ccc(NC(=O)c3ccco3)cc2)c1 | – | inactive: -14.8%
Cc1ccc(S(=O)(=O)Nc2nnc(C(C)(C)C)s2)cc1 | – | inactive: -3.25%
CN(C)c1cccc(C(=O)N/N=C/c2ccccc2F)c1 | active: 0.601 µM | –
COc1ccc(S(=O)(=O)Nc2cc3c4c(c2)CCN4C(=O)CC3)cc1OC | – | inactive: 4.2%
O=C(Nc1ccc2nn(-c3ccccc3)nc2c1)c1cccnc1 | inconclusive: 9.53 µM [inhibitor, partial curve] | –
COc1ccc(C(=O)Nc2ccccc2C(=O)O)cc1Cl | active: 5.36 µM | –
O=C1/C(=C/c2ccccn2)COc2ccccc21 | active: 8.49 µM | –
Cc1ccc(OC(=O)c2cc(-c3ccc4c(c3)OCCO4)on2)c(C)c1 | active: 1.51 µM | –
COc1ccc(S(=O)(=O)NCCSCc2ccccc2C)cc1Br | inconclusive: 37.9 µM [inhibitor, partial curve, poor fit] | –
Cc1ccccc1OCCN1C(=O)c2ccccc2C1=O | active: 19 µM | –
Cc1csc2c(N3CCCCC3)ncnc12 | active: 13.5 µM | –
Cc1cc(=O)[nH]c(SCCCOc2ccc3c(c2)CCC3)n1 | inconclusive: 23.9 µM [inhibitor, single point] | –
O=C(COC(=O)c1ccccc1-c1ccccc1[N+](=O)[O-])c1ccccc1 | inconclusive: 13.5 µM [inhibitor, partial curve] | –
Clc1ccc(-c2nc3ncccn3c2Cl)cc1 | inconclusive: 30.1 µM [inhibitor, partial curve, poor fit] | –
COc1ccccc1OCC(=O)Nc1cccc(C(=O)N2CCOCC2)c1 | inconclusive: 19 µM [inhibitor, partial curve, poor fit] | –
